Data published in patent US20260200997A1, “AFFINITY AGENTS” (Repligen Corporation, priority 2022, published 2026).

Biological target: T1, Haptoglobin protein (Homo sapiens, UniProt P00738)
T1 sequence (P00738 162-406 limits assumed): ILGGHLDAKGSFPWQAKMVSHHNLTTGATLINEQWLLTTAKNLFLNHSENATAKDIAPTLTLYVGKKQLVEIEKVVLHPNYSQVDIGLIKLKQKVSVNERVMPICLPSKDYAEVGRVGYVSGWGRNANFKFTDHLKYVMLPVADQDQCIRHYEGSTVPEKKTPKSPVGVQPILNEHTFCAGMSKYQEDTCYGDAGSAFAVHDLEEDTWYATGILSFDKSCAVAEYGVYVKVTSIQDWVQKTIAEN
T1 sequence (P00738 19-160 limits assumed): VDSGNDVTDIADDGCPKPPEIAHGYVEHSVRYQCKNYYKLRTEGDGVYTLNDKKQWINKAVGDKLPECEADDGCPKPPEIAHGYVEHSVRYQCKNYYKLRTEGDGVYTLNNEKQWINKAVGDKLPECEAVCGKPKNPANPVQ
Experiment: Dynamic binding capacity of packed affinity resin column
Conditions: resin from ligand, 0.3×10 cm column, 1 mg/mL haptoglobin in PBS, 10% breakthrough, FIG. 4
Procedure: Haptoglobin protein was diluted to a concentration of 1 mg/mL in PBS. A resin prepared from the ligand corresponding to SEQ ID NO. 118 was packed into a column. A 0.3×10 cm (0.707 mL) column was operated according to the following table.
To evaluate the effect of residence time on dynamic binding capacity the linear velocity of the load solution was varied. Distinct dynamic binding capacity measurements were made using a linear velocity of 75 cm/hr (8-minute residence time), 100 cm/hr (6-minute residence time), 150 cm/hr (4-minute residence time), and 300 cm/hr (2-minute residence time).
The materials were analyzed by measuring absorbance of each effluent fraction compared to the absorbance of the load solution. The aggregate mass of haptoglobin challenge at the point when the effluent measures 10% of the load solution is reported as the dynamic binding capacity of the resin. The data is shown in FIG. 4 for an exemplary affinity resin produced from the affinity ligand corresponding to SEQ ID NO.

B1: MVDAKFDKELEEARAEIERLPNLTEEQRRNFIQALRDDPSSSAGLLALAKHWNDKQAPKVDAKFDKELEEARAEIERLPNLTEEQRRNFIQALRDDPSSSAGLLALAKHWNDKQAPKVDAKFDKELEEARAEIERLPNLTEEQRRNFIQALRDDPSSSAGLLALAKHWNDKQAPKAAAHHHHHHC (protein)
chain: MVDAKFDKELEEARAEIERLPNLTEEQRRNFIQALRDDPSSSAGLLALAKHWNDKQAPKVDAKFDKELEEARAEIERLPNLTEEQRRNFIQALRDDPSSSAGLLALAKHWNDKQAPKVDAKFDKELEEARAEIERLPNLTEEQRRNFIQALRDDPSSSAGLLALAKHWNDKQAPKAAAHHHHHHC
With B1 the “Dynamic binding capacity of the resin on increasing the residence time to 8 minutes” value (8-minute residence time (75 cm/hr)) was “did not increase binding capacity” and the “Dynamic binding capacity of the resin versus residence time” value (residence time 2-6 minutes) was “increases with increased residence time over the range of 2-6 minutes”.
